# Test results taken from the supplement of paper PMC12632987.
# Whole data set: some 4,500 sequences, median “median log2 fold change of GCK-ALFA target abundance (FLAG IP / Myc IP barcode read proportion)” near 0.078, cut for the lowest 2% near -0.6. The list shows a part of the results.
# B1: GBRAP_11_2693 (protein)
# chain: EKEKLKKGAELAEELAKVLEKLLEEGVDNEELLKKAKELLEELEKLTKEYGDEGNKKLTEILKELFEKALEDKENAEKYVQEALAAARVLAGNYLLEIEE
# B2: GBRAP_35_5571 (protein)
# chain: DFDEETVEMLIATIEDLTLAVPDMPLPDAVAAALSLARAAEELVEELKDNPELLKRIAEALKKLLAAVKAHYGDSPEAKEAAKKIEEVIKKAEELAKKAE
# B3: GBRAP_160_4825 (protein)
# chain: SETLKKAKELLEETVERAIELIEGETPEERAAIVAVELGEFILELSELPEVSDEALDEVAKIADETVDTIKANPDLTLEEIKALLEESKKKIIEALEKHF
# B4: GBRAP_26_5480 (protein)
# chain: IEEKVREILEELKKLLEELLDPELAAAALAEATTIIIEAAEKMEENKDNPEKLKEIVEKAVKELREELKRLGVSEEKAEKIVEKARKGLEELAKLILEES
# B5: GBRAP_14_3779 (protein)
# chain: MEEIEKIIREHGEEIIELLTEIVPEKAEEIEEIVRRVVEETIKRIRETGNALEAAEEGKERLKEEIAKLLADLPEEVRARALAVVEVEFGQAILEIEELL
# B6: GBRAP_125_2996 (protein)
# chain: PTPAQLEDLAALLRALGFDDEDVAEAVALAARHGLRGTLYAALLALGEEETAELVARLTEAQTAAVLRRLRAWLEAHPDATPEEVVARLAELAREELAAA
# B7: GBRAP_166_4890 (protein)
# chain: STEEAIKKIEELAAAAIANIANLTDEELLAVFIDMVEIVEEAGATPELREAAARNFARIVAAAVAAGRDWDRVESLALAAVGDDEELLDAVEAELARMRA
# B8: GBRAP_78_6573 (protein)
# chain: EIEELVDEAIEKLNEAATKLAKLNTPEAQDILDEVVDALSYLLEAEEEGFDLELLEEALKEVEKAIELVKKVPDKEYEEILKLLEEAKKLLKEAIKLVKE
# B9: GBRAP_53_6426 (protein)
# chain: MEARIAELRERARALTERATRADPETRAALVAEIGAVLAELKAAGAPDAEITALAAEIARRLRAAGAPPSALVALARELAELGLEEGTAAVAEEAVEELE
# B10: GBRAP_52_6067 (protein)
# chain: MKKKIEEYAEKITEAVKAGDKEKALELIKKMVEELSLEEIKETLELAAKKVAELGEEEHELFVDILTEAEDILIEKGISEEDALLIVGAAEAALAKAVAA
# B11: GBRAP_52_6111 (protein)
# chain: AAEAARALVEEVLALVRAGREEEARARLRAFARTADEEAVRLFAEALAERARAAAPEDWEAVWRLAEMAEEALLEEGWDEALADDLLARTAAALYERELA
# B12: GBRAP_125_3024 (protein)
# chain: SAEQVVEDLGLIARALGFSEGDVALLMEEARKHGIKGAFIALMLAEGLEKEAELAEKLTEEEVVEVVKEVAAWLKAHPDATPEEVKEKILEVLEKAVAKS
# B13: GBRAP_35_5561 (protein)
# chain: DSDDTIAEMMVNTIEDLTEAVADIDPADLKTITEQLAKSTLEVIKEIKDNKENLERILKALEALKKAIEARGLDDPNLKAAADAVKKAIEEAKKAIKAAE
# B14: GBRAP_78_6626 (protein)
# chain: EVKEKLEKALKKVSEAATLATKSPEEEAIDILDHLIDAFEYIEEAIEKGGDLEELEKALKHLEEAKKLVEAQKDPKYEPLLKLIEEAIKLLKEAIKELKK
# B15: GBRAP_128_3470 (protein)
# chain: GTEEAKEWTREVMEKMETADEEEFRKLATELAERLLTLPVEEVEAAVEVIEEHLPKLSAEKLEILADVLEKAMPKATPEKAALFADVISEALLLAEELEE
# B16: GBRAP_43_5796 (protein)
# chain: SEEWVEGAFDFAETALETPEITDETKARIVVDAVEIAIDEGLLTPEKLKALLEKLRAAVSPEVAVRALEEIEAIAEKEGAPQELLDVIRAARAAAEAELA
# B17: GBRAP_80_6821 (protein)
# chain: LEEELKKALEELKKIDPEIAEIVKEIVEIAKELGVPLEEILRYTKAIVELAKIDKEKALELAKRTLEELKKEKKEGDKEGALAELVDGESEALLKVEELE
# B18: GBRAP_160_4136 (protein)
# chain: KEELEKLIKEIRETAEEALKMIEGETPEEAKVIAKVALGDIVMLVDTSEAVSDEVEDEVGAIADAAAAELDANPDLTVEEIKELLREATEKVVAVLEKEM
# B19: GBRAP_150_3911 (protein)
# chain: DLEELLTVVDTLIDLLEAILDGEWSLLPHAIKVAKHAVELAKELEEEIKKLAEEMLEKLEKAKKLKEEGGKEEEIKKEVKEALELAEKLRKLLEKLIKEK
# Molecular target: GABARAP, O95166
# Sequence (O95166 whole entry, the tested form may be a part): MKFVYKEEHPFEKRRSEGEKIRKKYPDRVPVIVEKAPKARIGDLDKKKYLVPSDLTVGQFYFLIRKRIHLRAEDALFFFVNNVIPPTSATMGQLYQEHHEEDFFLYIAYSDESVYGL
# Assay: median log2 fold change of GCK-ALFA target abundance (FLAG IP / Myc IP barcode read proportion) (log2 ratio); each designed protein is fused to an ALFA-tag nanobody in HEK293 cells to bring the named protein to FLAG-tagged glucokinase (GCK); Myc marks an untargeted standard; higher = target protein stabilised (more abundant)
# Details: target protein: 3xFLAG-MCP-GCK-ALFA reporter; HEK293 landing pad (RPLP)
# How it was run: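 Binders fused to an ALFA nanobody were recombined as a library into HEK293 landing-pad cells, which were induced with 2 μg mL^−1 doxycycline and then transfected to express a FLAG-tagged target and a Myc-tagged standard. After 48 h, circular RNA barcodes recovered by anti-FLAG and anti-Myc immunoprecipitation of lysates were reverse transcribed, amplified and sequenced. Each binder's target abundance is the median log2 ratio of FLAG to Myc barcode read proportions, from barcodes present at ≥10^−7 in both replicates, binders carrying ≥3 barcodes per replicate, a 10^−6 pseudocount and pooled replicates.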
row,Binder,median log2 fold change
1,B1,0.552
2,B2,0.185
3,B3,0.133
4,B4,0.163
5,B5,0.275
6,B6,-0.199
7,B7,0.302
8,B8,0.0551
9,B9,0.229
10,B10,-0.383
11,B11,-0.131
12,B12,0.229
13,B13,0.135
14,B14,0.0216
15,B15,0.251
16,B16,-0.126
17,B17,0.0645
18,B18,0.0765
19,B19,0.268
